# The supplement of paper PMC8728848
# The list shows a part of the results.
# B1: Epa3to1 (Candida glabrata) (protein)
# chain: MGSSHHHHHHSSGLVPRGSHMKRELSSQNPFGYPIGCSPQDVAIIPGLTMELYSYPIVSGTPPNCYDASYVDPEYPRTGYLKRKMVGKSTGVTGNLNYKYSVEKACMVKYGNLPAGYNYNEPLTVSNFTMILYGYFKAQTTGLHTFFVNADDLLYINFGAGNAFDCCKREDSKTKLGEYVAYDIWHVDSSKNKVSLFLEKDLYYPIRMFFNNREYDSSLDLSFSVNGATDQISDFSGYLYSVPDQPDTCPAHIGYDTTCR
# How the values were obtained:
# Test in all cases: glycan array binding signal (z-score within array); higher = stronger binding
# Conditions in all cases: glycan notation: IUPAC condensed, linker removed
# [1] = target: Gal(b1-4)GlcNAc(b1-3)Gal(b1-4)GlcNAc(b1-6)[Gal(b1-3)]GalNAc
# How it was run: (§1)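 Columns mapping to the same glycan were averaged after glycan names were converted to IUPAC-condensed notation. The data come from 3228 arrays in the Consortium for Functional Glycomics database, limited to those with an available protein sequence. Binding is reported as a within-array Z-score averaged across arrays of one protein sequence and across linkers.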
# [2] = target: Gal(b1-4)GlcNAc(b1-3)Gal(b1-4)[Fuc(a1-3)]GlcNAc(b1-3)Gal(b1-4)[Fuc(a1-3)]GlcNAc
# How it was run: as §1
# [3] = target: Gal(b1-4)GlcNAc(b1-3)GalNAc
# How it was run: as §1
# [4] = target: Gal(b1-4)GlcNAc(b1-3)[Fuc(a1-3)GlcNAc(b1-6)]Gal(b1-4)Glc
# How it was run: as §1
# [5] = target: Gal(b1-4)GlcNAc(b1-3)[Gal(b1-4)GlcNAc(b1-6)]Gal(b1-4)GlcNAc
# How it was run: as §1
# [6] = target: Gal(b1-4)GlcNAc(b1-3)[GlcNAc(b1-6)]Gal(b1-4)GlcNAc
# How it was run: as §1
# [7] = target: Gal(b1-4)GlcNAc(b1-6)Gal(b1-4)GlcNAc
# How it was run: as §1
# [8] = target: Gal(b1-4)GlcNAc(b1-6)GalNAc
# How it was run: as §1
# [9] = target: Gal(b1-4)GlcNAc(b1-6)[Gal(b1-3)]GalNAc
# How it was run: as §1
# [10] = target: Gal(b1-4)GlcNAc(b1-6)[Gal(b1-4)GlcNAc(b1-3)]GalNAc
# How it was run: as §1
# [11] = target: Gal(b1-4)GlcNAc6P
# How it was run: as §1
# [12] = target: Gal(b1-6)Gal
# How it was run: as §1
# [13] = target: Gal3S(b1-3)GalNAc
# How it was run: as §1
# [14] = target: Gal3S(b1-3)GlcNAc
# How it was run: as §1
# [15] = target: Gal3S(b1-3)[Fuc(a1-4)]GlcNAc
# How it was run: as §1
# [16] = target: Gal3S(b1-4)Glc
# How it was run: as §1
# [17] = target: Gal3S(b1-4)Glc6S
# How it was run: as §1
# [18] = target: Gal3S(b1-4)GlcNAc
# How it was run: as §1
# [19] = target: Gal3S(b1-4)[Fuc(a1-3)]Glc6S
# How it was run: as §1
# [20] = target: Gal3S(b1-4)[Fuc(a1-3)]GlcNAc
# How it was run: as §1
# [21] = target: Gal3S(b1-4)[Fuc(a1-3)]GlcNAc6S
# How it was run: as §1
# [22] = target: Gal3S4S(b1-4)GlcNAc
# How it was run: as §1
# [23] = target: Gal3S6S(b1-4)GlcNAc
# How it was run: as §1
# [24] = target: Gal3S6S(b1-4)GlcNAc6S
# How it was run: as §1
# [25] = target: Gal4S(b1-4)GlcNAc
# How it was run: as §1
# [26] = target: Gal4S6S(b1-4)GlcNAc
# How it was run: as §1
# [27] = target: Gal6P(b1-4)GlcNAc
# How it was run: as §1
# [28] = target: Gal6S(b1-3)GlcNAc
# How it was run: as §1
# [29] = target: Gal6S(b1-3)GlcNAc6S
# How it was run: as §1
# [30] = target: Gal6S(b1-4)Glc
# How it was run: as §1
# [31] = target: Gal6S(b1-4)Glc6S
# How it was run: as §1
# [32] = target: Gal6S(b1-4)GlcNAc
# How it was run: as §1
# [33] = target: Gal6S(b1-4)GlcNAc6S
# How it was run: as §1
# [34] = target: GalNAc(a1-3)Gal
# How it was run: as §1
# [35] = target: GalNAc(a1-3)GalNAc
# How it was run: as §1
# [36] = target: GalNAc(a1-3)GalNAc(b1-3)Gal(a1-4)Gal(b1-4)Glc
# How it was run: as §1
# [37] = target: GalNAc(a1-3)GalNAc(b1-3)Gal(a1-4)Gal(b1-4)GlcNAc
# How it was run: as §1
binder,measurement,setting,value
B1,glycan array binding signal (z-score),[1],-0.038
same,glycan array binding signal (z-score),[2],0.092
same,glycan array binding signal (z-score),[3],-0.338
same,glycan array binding signal (z-score),[4],2.39
same,glycan array binding signal (z-score),[5],0.35
same,glycan array binding signal (z-score),[6],-1.44
same,glycan array binding signal (z-score),[7],0.054
same,glycan array binding signal (z-score),[8],-0.12
same,glycan array binding signal (z-score),[9],0.582
same,glycan array binding signal (z-score),[10],-0.177
same,glycan array binding signal (z-score),[11],-0.619
same,glycan array binding signal (z-score),[12],0.923
same,glycan array binding signal (z-score),[13],-0.295
same,glycan array binding signal (z-score),[14],-0.366
same,glycan array binding signal (z-score),[15],-0.752
same,glycan array binding signal (z-score),[16],-0.017
same,glycan array binding signal (z-score),[17],-0.103
same,glycan array binding signal (z-score),[18],-0.412
same,glycan array binding signal (z-score),[19],0.085
same,glycan array binding signal (z-score),[20],-0.289
same,glycan array binding signal (z-score),[21],0.665
same,glycan array binding signal (z-score),[22],-0.112
same,glycan array binding signal (z-score),[23],0.487
same,glycan array binding signal (z-score),[24],0.34
same,glycan array binding signal (z-score),[25],-0.388
same,glycan array binding signal (z-score),[26],-0.514
same,glycan array binding signal (z-score),[27],-0.465
same,glycan array binding signal (z-score),[28],1.63
same,glycan array binding signal (z-score),[29],4.12
same,glycan array binding signal (z-score),[30],0.932
same,glycan array binding signal (z-score),[31],6.81
same,glycan array binding signal (z-score),[32],2
same,glycan array binding signal (z-score),[33],9.56
same,glycan array binding signal (z-score),[34],-0.585
same,glycan array binding signal (z-score),[35],-0.305
same,glycan array binding signal (z-score),[36],-0.469
same,glycan array binding signal (z-score),[37],0.025
